# In the supplement of paper PMC11876631:
# Substitutions are numbered along the chain they refer to. In names and notes the source's numbering stands. ± gives the standard deviation of the averaged measurements. Laboratory Escherichia coli strains with one amino-acid change in an essential protein, pooled on minimal glucose agar with carbenicillin or gentamicin at twice the control MIC (plus kanamycin and chloramphenicol for the plasmids), 48 h. Fold change of barcode share against drug-free plates; higher = less susceptible. Active = above 20 in both replicates (the paper's putatively resistant). '<' = one read or none on drug, '>' = one read or none on a drug-free plate. Shares are relative, so most strains fall below 1 when a few take over. Listed are strains with at least 15 reads on both drug-free plates, and hits; most hits rest on fewer reference reads. Replicate rank correlation about 0.5. Edits are read from barcodes.
# B1: mraY V162A (protein)
# chain: MLVWLAEHLVKYYSGFNVFSYLTFRAIVSLLTALFISLWMGPRMIAHLQKLSFGQVVRNDGPESHFSKRGTPTMGGIMILTAIVISVLLWAYPSNPYVWCVLVVLVGYGVIGFVDDYRKVVRKDTKGLIARWKYFWMSVIALGVAFALYLAGKDTPATQLVAPFFKDVMPQLGLFYILLAYFVIVGTGNAVNLTDGLDGLAIMPTVFVAGGFALVAWATGNMNFASYLHIPYLRHAGELVIVCTAIVGAGLGFLWFNTYPAQVFMGDVGSLALGGALGIIAVLLRQEFLLVIMGGVFVVETLSVILQVGSFKLRGQRIFRMAPIHHHYELKGWPEPRVIVRFWIISLMLVLIGLATLKVR
# B2: mreC I26P (protein)
# chain: MKPIFSRGPSLQIRLILAVLVALGIPIADSRLGTFSQIRTYMDTAVSPFYFVSNAPRELLDGVSQTLASRDQLELENRALRQELLLKNSELLMLGQYKQENARLRELLGSPLRQDEQKMVTQVISTVNDPYSDQVVIDKGSVNGVYEGQPVISDKGVVGQVVAVAKLTSRVLLICDATHALPIQVLRNDIRVIAAGNGCTDDLQLEHLPANTDIRVGDVLVTSGLGGRFPEGYPVAVVSSVKLDTQRAYTVIQARPTAGLQRLRYLLLLWGADRNGANPMTPEEVHRVANERLMQMMPQVLPSPDAMGPKLPEPATGIAQPTPQQPATGNAATAPAAPTQPAANRSPQRATPPQSGAQPPARAPGGQ
# B3: mreC V123P (protein)
# chain: B2 chain with P26I, V123P
# B4: mreC V238A (protein)
# chain: B2 chain with P26I, V238A
# B5: mreC I124Q (protein)
# chain: B2 chain with P26I, I124Q
# B6: mreC V123A (protein)
# chain: B2 chain with P26I, V123A
# B7: mreC V238Q (protein)
# chain: B2 chain with P26I, V238Q
# B8: mukB V758Q (protein)
# chain: MIERGKFRSLTLINWNGFFARTFDLDELVTTLSGGNGAGKSTTMAAFVTALIPDLTLLHFRNTTEAGATSGSRDKGLHGKLKAGVCYSMLDTINSRHQRVVVGVRLQQVAGRDRKVDIKPFAIQGLPMSVQPTQLVTETLNERQARVLPLNELKDKLEAMEGVQFKQFNSITDYHSLMFDLGIIARRLRSASDRSKFYRLIEASLYGGISSAITRSLRDYLLPENSGVRKAFQDMEAALRENRMTLEAIRVTQSDRDLFKHLISEATNYVAADYMRHANERRVHLDKALEFRRELHTSRQQLAAEQYKHVDMARELAEHNGAEGDLEADYQAASDHLNLVQTALRQQEKIERYEADLDELQIRLEEQNEVVAEAIERQQENEARAEAAELEVDELKSQLADYQQALDVQQTRAIQYNQAIAALNRAKELCHLPDLTADCAAEWLETFQAKELEATEKMLSLEQKMSMAQTAHSQFEQAYQLVVAINGPLARNEAWDVARELLREGVDQRHLAEQVQPLRMRLSELEQRLREQQEAERLLADFCKRQGKNFDIDELEALHQELEARIASLSDSVSNAREERMALRQEQEQLQSRIQSLMQRAPVWLAAQNSLNQLSEQCGEEFTSSQDVTEYLQQLLEREREAIVERDEVGARKNAVDEEIERLSQPGGSEDQRLNALAERFGGVLLSEIYDDVSLEDAPYFSALYGPSRHAIVVPDLSQVTEHLEGLTDCPEDLYLIEGDPQSFDDSVFSVDELEKAQVVKIADRQWRYSRFPEVPLFGRAARESRIESLHAEREVLSERFATLSFDVQKTQRLHQAFSRFIGSHLAVAFESDPEAEIRQLNSRRVELERALSNHENDNQQQRIQFEQAKEGVTALNRILPRLNLLADDSLADRVDEIRERLDEAQEAARFVQQFGNQLAKLEPIVSVLQSDPEQFEQLKEDYAYSQQMQRDARQQAFALTEVVQRRAHFSYSDSAEMLSGNSDLNEKLRERLEQAEAERTRAREALRGHAAQLSQYNQVLASLKSSYDTKKELLNDLQRELQDIGVRADSGAEERARIRRDELHAQLSNNRSRRNQLEKALTFCEAEMDNLTRKLRKLERDYFEMREQVVTAKAGWCAVMRMVKDNGVERRLHRRELAYLSADDLRSMSDKALGALRLAVADNEHLRDVLRMSEDPKRPERKIQFFVAVYQHLRERIRQDIIRTDDPVEAIEQMEIELSRLTEELTSREQKLAISSRSVANIIRKTIQREQNRIRMLNQGLQNVSFGQVNSVRLNVNVRETHAMLLDVLSEQHEQHQDLFNSNRLTFSEALAKLYQRLNPQIDMGQRTPQTIGEELLDYRNYLEMEVEVNRGSDGWLRAESGALSTGEAIGTGMSILVMVVQSWEDESRRLRGKDISPCRLLFLDEAARLDARSIATLFELCERLQMQLIIAAPENISPEKGTTYKLVRKVFQNTEHVHVVGLRGFAPQLPETLPGTDEAPSQAS
# B9: metL V545A (protein)
# chain: MSVIAQAGAKGRQLHKFGGSSLADVKCYLRVAGIMAEYSQPDDMMVVSAAGSTTNQLINWLKLSQTDRLSAHQVQQTLRRYQCDLISGLLPAEEADSLISAFVSDLERLAALLDSGINDAVYAEVVGHGEVWSARLMSAVLNQQGLPAAWLDAREFLRAERAAQPQVDEGLSYPLLQQLLVQHPGKRLVVTGFISRNNAGETVLLGRNGSDYSATQIGALAGVSRVTIWSDVAGVYSADPRKVKDACLLPLLRLDEASELARLAAPVLHARTLQPVSGSEIDLQLRCSYTPDQGSTRIERVLASGTGARIVTSHDDVCLIEFQVPASQDFKLAHKEIDQILKRAQVRPLAVGVHNDRQLLQFCYTSEVADSALKILDEAGLPGELRLRQGLALVAMVGAGVTRNPLHCHRFWQQLKGQPVEFTWQSDDGISLVAVLRTGPTESLIQGLHQSVFRAEKRIGLVLFGKGNIGSRWLELFAREQSTLSARTGFEFVLAGVVDSRRSLLSYDGLDASRALAFFNDEAVEQDEESLFLWMRAHPYDDLVALDVTASQQLADQYLDFASHGFHVISANKLAGASDSNKYRQIHDAFEKTGRHWLYNATVGAGLPINHTVRDLIDSGDTILSISGIFSGTLSWLFLQFDGSVPFTELVDQAWQQGLTEPDPRDDLSGKDVMRKLVILAREAGYNIEPDQVRVESLVPAHCEGGSIDHFFENGDELNEQMVQRLEAAREMGLVLRYVARFDANGKARVGVEAVREDHPLASLLPCDNVFAIESRWYRDNPLVIRGPGAGRDVTAGAIQSDINRLAQLL
# B10: metL L546P (protein)
# chain: B9 chain with A545V, L546P
# B11: msbA V287Q (protein)
# chain: MHNDKDLSTWQTFRRLWPTIAPFKAGLIVAGVALILNAASDTFMLSLLKPLLDDGFGKTDRSVLVWMPLVVIGLMILRGITSYVSSYCISWVSGKVVMTMRRRLFGHMMGMPVSFFDKQSTGTLLSRITYDSEQVASSSSGALITVVREGASIIGLFIMMFYYSWQLSIILIVLAPIVSIAIRVVSKRFRNISKNMQNTMGQVTTSAEQMLKGHKEVLIFGGQEVETKRFDKVSNRMRLQGMKMVSASSISDPIIQLIASLALAFVLYAASFPSVMDSLTAGTITVQFSSMIALMRPLKSLTNVNAQFQRGMAACQTLFTILDSEQEKDEGKRVIERATGDVEFRNVTFTYPGRDVPALRNINLKIPAGKTVALVGRSGSGKSTIASLITRFYDIDEGEILMDGHDLREYTLASLRNQVALVSQNVHLFNDTVANNIAYARTEQYSREQIEEAARMAYAMDFINKMDNGLDTVIGENGVLLSGGQRQRIAIARALLRDSPILILDEATSALDTESERAIQAALDELQKNRTSLVIAHRLSTIEKADEIVVVEDGVIVERGTHNDLLEHRGVYAQLHKMQFGQ
# Molecular target: Escherichia coli (laboratory strain)
# Experiment: barcode share on antibiotic plates over drug-free plates; higher = less susceptible
# Conditions: antibiotic: gentamicin; 2× MIC (MIC 0.45 µg/mL)
# Protocol: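 A pool of E. coli strains, each edited to carry one amino-acid change in an essential protein, was grown for 48 h on minimal glucose agar with or without antibiotic; strain barcodes were sequenced; mean of two replicates.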
row,Protein,fold change of barcode share
1,B1,< 0.00773
2,B2,< 0.0129
3,B3,< 0.0213
4,B4,< 0.0119
5,B5,0.0303 ± 0.012
6,B6,< 0.0158
7,B7,< 0.0212
8,B8,< 0.0147
9,B9,< 0.0188
10,B10,< 0.0208
11,B11,< 0.0153
